# Results reported in PubChem BioAssay (Tox21).
# The shares of active, inactive and inconclusive entries below differ from those in the screen. For some assays here: Potencies of inconclusive entries are left out as doubtful fits. More than one record can exist for a structure, and the calls need not agree. Activity calls are given as the source filed them. Unless noted, the call rests on the fitted dose curve; in most records, active means well fitted curve in the direction sought with a large enough effect in the repeat runs; inconclusive means weak or mixed curves; inactive means no such curve, though single readings can be large; an effect the other way counts as inactive or inconclusive.
# Legend:
# [1] = target: Peroxisome proliferator-activated receptor gamma (Homo sapiens) (UniProt P37231); assay: qHTS assay to identify small molecule agonists of the peroxisome proliferator-activated receptor gamma (PPARg) signaling pathway (AID 743094; active means well fitted activation curve with a large enough effect in the signal ratio in the repeat runs, not every such curve was filed as active; inconclusive means weak or mixed curves, or effect the other way; inactive means no such curve, though single readings can be large or run the other way; the % refers to the signal ratio; further: potency means the concentration at half of the fitted maximal effect); details: HEK293H PPARg-UAS-bla, beta-lactamase FRET ratio, 17 h; activation: at 57 µM (top of the series) unless noted
# Outline: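 GeneBLAzer PPARg UAS-bla HEK293H cells carrying a stably integrated beta-lactamase reporter were pre-incubated 5 h at 37C, then exposed to compounds in DMSO for 17 h at 37C; LiveBLAzer B/G FRET substrate was added for 1 h at room temperature and fluorescence read.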
# [2] = qHTS assay to identify small molecule agonists of the farnesoid-X-receptor (FXR) signaling pathway - cell viability counter screen (AID 743218); details: FXR-bla HEK293T viability, CellTiter-Glo luminescence, 16 h; viability change, negative = cytotoxic: at 62.6 µM (top of the series); further: nearly all actives have a fitted effect of over 45% in size; further: potency means the concentration at half of the fitted maximal effect; on viability change, negative = cytotoxic: on the % scale 0 is the no-effect control and ±100 the full control effect
# Outline: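 FXR-UAS-bla HEK 293T cells, plated 5 h at 37 C, were exposed to compounds for 16 h at 37 C. CellTiter-Glo was then added to the same wells as the bla readout; luminescence read after 30 min at room temperature.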
# [3] = Caspase-3/7 induction in HepG2 cells by small molecules, qHTS cell viability counter screen (AID 1346981); further: nearly all actives have a fitted effect of over 30% in size; further: potency means the concentration at half of the fitted maximal effect
# Outline: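 Wild-type HepG2 cells (2,000/well) were allowed to settle for 5 hr at 37 C, 5% CO2, then dosed with compounds in DMSO by pin transfer. After 16 hr at 37 C, CellTiter-Fluor was added and fluorescence read 1 hr later.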
# [4] = qHTS assay to identify small molecule agonists of the sonic hedgehog signaling (Shh) pathway - cell viability counter screen (AID 1259366); further: nearly all actives have a fitted effect of over 50% in size; further: potency means the concentration at half of the fitted maximal effect; on viability change, negative = cytotoxic: on the % scale 0 is the no-effect control and ±100 the full control effect
# Outline: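 Compounds in DMSO were pin-transferred onto 3T3 Gli1-Luc cells that had settled 4hr; plates then stood 24hr at 37C and 5% CO2. One hour before the end, CellTiter-Fluor was added and fluorescence recorded.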
# [5] = qHTS assay to identify small molecule antagonists of the estrogen receptor beta (ER-beta) signaling pathway - cell viability counter screen (AID 1259382); further: nearly all actives have a fitted effect of over 55% in size; further: potency means the concentration at half of the fitted maximal effect;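 on activity change, negative = cytotoxicity: HEK293T cells carrying ER-beta-UAS-bla reporter stimulated with estradiol; on the % scale 0 is the no-effect control and ±100 the full control effect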
# Outline: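 ER-beta-UAS-bla HEK293T cells (2,000/well, 2% charcoal-stripped FBS) were pre-incubated 6 hr at 37C, then given compound plus 1nM final 17-beta-estradiol for 16 hr. Viability was read in the same wells by CellTiter-Glo luminescence after 30 min at room temperature.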
# [6] = qHTS assay to identify small molecule agonists of the peroxisome proliferator-activated receptor delta (PPARd) signaling pathway - cell viability counter screen (AID 743211); details: PPARd-bla HEK293H viability, CellTiter-Glo luminescence, 17 h; activity change, negative = cytotoxicity: at 62.6 µM (top of the series); further: nearly all actives have a fitted effect of over 55% in size; further: potency means the concentration at half of the fitted maximal effect; on activity change, negative = cytotoxicity: on the % scale 0 is the no-effect control and ±100 the full control effect
# Outline: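 Tox21 library compounds, delivered in DMSO, were incubated 17 h with PPARd-bla HEK293H cells; cytotoxicity was taken from CellTiter-Glo luminescence read 30 min after reagent addition.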
# [7] = target: Luciferin 4-monooxygenase (Photinus pyralis) (UniProt P08659); assay: qHTS assay to identify small molecule inhibitors of firefly luciferase (AID 1224835); further: potency means the concentration at half of the fitted maximal effect; nearly all actives have a fitted effect of over 25% in size
# Outline: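 Biochemical qHTS: compounds run as interplate titrations against purified firefly enzyme, with D-luciferin and ATP each at its KM concentration. Light output recorded by CCD imaging.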
# [8] = qHTS assay to identify small molecule antagonists of the peroxisome proliferator-activated receptor gamma (PPARg) signaling pathway - cell viability counter screen (AID 743194); details: PPARg-bla HEK293H viability, CellTiter-Glo luminescence, 17 h; Potency: co-treated with 50 nM rosiglitazone unless noted; activity change, negative = cytotoxicity: at 62.6 µM (top of the series), co-treated with 50 nM rosiglitazone unless noted; further: nearly all actives have a fitted effect of over 55% in size; further: potency means the concentration at half of the fitted maximal effect
# Outline: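 Cytotoxicity counter screen in PPARg-bla HEK293H cells, same wells as reporter assay. Compounds plus 50 nM rosiglitazone (final) for 17 h at 37 C, then viability read by CellTiter-Glo luminescence.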
# [9] = target: Nuclear receptor subfamily 1 group I member 3 (Homo sapiens) (UniProt Q14994); assay: qHTS assay to identify small molecule agonists of the constitutive androstane receptor (CAR) signaling pathway (AID 1224839); further: nearly all actives have a fitted effect of over 15% in size; further: potency means the concentration at half of the fitted maximal effect
# Outline: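 Readout: firefly luciferase luminescence via ONE-Glo. System: HepG2 double-stable for hCAR and CYP2B6-2.2kb. Conditions: 15-point compound titration, PK11195 at 0.75 uM final, 24 h incubation.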
# [10] = A CellTox Green Cytotoxicity Assay to monitor cytotoxicity in HepG2 cells - 40 hour (AID 1224879); further: nearly all actives have a fitted effect of over 40% in size; further: potency means the concentration at half of the fitted maximal effect
# Outline: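 HepG2 cells were seeded together with the CellTox Green dye at 600 cells/well, left 5 h at 37 C/5% CO2, then given compounds in DMSO. Fluorescence from dye bound to dead-cell DNA was read repeatedly over 40 h of treatment at 37 C.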
# [11] = qHTS assay to identify small molecule antagonists of the estrogen receptor alpha (ER-alpha) signaling pathway using the BG1 cell line (AID 743080; calls by dose curve;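 further: BG1 cells stimulated with 17beta-estradiol alongside compound; nearly all actives have a fitted effect of over 25% in size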; further: potency means the concentration at half of the fitted maximal effect); details: BG1Luc4E2 ERE-luciferase antagonist mode, luminescence; activity change, negative = inhibition: at 70.3 µM (top of the series) unless noted
# Outline: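 Luciferase inhibition measured with ONE-Glo after 30 min at RT in BG1Luc4E2 cells given test compounds and 17beta-estradiol for 21.5 h at 37 C; CellTiter-Fluor viability read in the same wells beforehand.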
# [12] = A CellTox Green Cytotoxicity Assay to monitor cytotoxicity in HEK293 cells - 40 hour (AID 1224871); further: nearly all actives have a fitted effect of over 45% in size; further: potency means the concentration at half of the fitted maximal effect
# Outline: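 HEK293 cells premixed with CellTox Green dye were seeded at 600 cells/well and left 5 h at 37 C/5% CO2 before pin transfer of 23 nL compound in DMSO. Fluorescence from dye bound to dead-cell DNA was read during 40 h treatment.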
# [13] = qHTS assay to identify small molecule antagonists of the estrogen related receptor signaling pathway with the pleiotropic PPARgamma coactivator (PGC) from Tox21 10K library (AID 1224841; call rule not given here; further: potency means the concentration at half of the fitted maximal effect; actives are mostly falling curves and most rising ones were filed inactive; nearly all actives have a fitted effect of over 50% in size)
# Outline: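 PGC/ERR reporter cells were seeded at 2,000 cells/well and held 6 hours at 37 C/5% CO2 before pin-tool addition of compounds in DMSO. After 18 hours at 37 C, One-Glo was added and luminescence read after 30 minutes at room temperature.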
# [14] = qHTS assay to identify aromatase inhibitors - cell viability counter screen (AID 743084); details: MCF-7 aro ERE viability, CellTiter-Fluor, 24 h; activity change, negative = cytotoxicity: at 70.3 µM (top of the series);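 further: cells stimulated with testosterone during compound exposure; potency means the concentration at half of the fitted maximal effect; nearly all actives have a fitted effect of over 55% in size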
# [15] = Human pregnane X receptor (PXR) small molecule agonists, qHTS cell viability counter screen (AID 1346977); further: nearly all actives have a fitted effect of over 50% in size; further: potency means the concentration at half of the fitted maximal effect
# Outline: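 Viability counter screen: CellTiter-Fluor signal in PXR-Luc HepG2 cells, 24hr compound exposure, 37C, 5% CO2.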
# [16] = qHTS assay for identifying genotoxic compounds that show differential cytotoxicity against isogenic chicken DT40 cell lines with known DNA damage response pathways - Rad54/Ku70 mutant cell line (AID 743015); details: DT40 Rad54/Ku70 mutant viability, CellTiter-Glo, 40 h; activity change, negative = cytotoxicity: at 66.8 µM (top of the series); further: nearly all actives have a fitted effect of over 60% in size; further: potency means the concentration at half of the fitted maximal effect
# [17] = qHTS assay to identify small molecule antagonists of the sonic hedgehog signaling (Shh) pathway - cell viability counter screen (AID 1259367); further: nearly all actives have a fitted effect of over 55% in size; further: potency means the concentration at half of the fitted maximal effect
# Outline: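 NIH/3T3-derived Gli1-Luc reporter cells, 2,000/well, plated 4 hr before compound addition, then stimulated with conditioned medium for 24 hr at 37C. Viability measured in the same wells by CellTiter-Fluor fluorescence, reagent added at 23 hr for 1 hr.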
# [18] = target: Thyrotropin receptor (Homo sapiens) (UniProt P16473); assay: qHTS assay to identify small molecule antagonists of the thyroid stimulating hormone receptor (TSHR) signaling pathway (AID 1259385; calls by dose curve; further: potency means the concentration at half of the fitted maximal effect; nearly all actives have a fitted effect of over 20% in size); details: TSHR-HEK293 cAMP HTRF, TSH-stimulated antagonist mode; activity change, negative = inhibition: at 92.4 µM (top of the series)
# Outline: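 TSHR-HEK293 cells (800/well) plated 18 h, then compounds with Ro20-1724 and TSH at 1.5 ng/mL final, 30 min at room temperature. cAMP quantified by HTRF (cAMP-d2/anti-cAMP-cryptate, 1 h); 15 concentrations in triplicate.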
# [19] = qHTS RealTime-Glo MT Cell Viability Assay in HEK293 cells - 8 hour (AID 1224887); further: top concentration of the series differs between compounds; on the % scale 0 is the no-effect control and ±100 the full control effect; nearly all actives have a fitted effect of over 50% in size
# Outline: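 HEK293 cells mixed with RealTime-Glo reagents (NanoLuc plus cell-permeant prosubstrate) at 600 cells/well, preincubated 5 h at 37 C/5% CO2, then given 23 nL compound in DMSO. Nonlytic luminescence from viable cells was read at 0, 8, 16, 24, 32 and 40 h.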
# Tags describe the fitted curve by direction and shape or compound fluorescence and quenching.
# UniProt P37231, sequence (P37231 whole entry, looked up): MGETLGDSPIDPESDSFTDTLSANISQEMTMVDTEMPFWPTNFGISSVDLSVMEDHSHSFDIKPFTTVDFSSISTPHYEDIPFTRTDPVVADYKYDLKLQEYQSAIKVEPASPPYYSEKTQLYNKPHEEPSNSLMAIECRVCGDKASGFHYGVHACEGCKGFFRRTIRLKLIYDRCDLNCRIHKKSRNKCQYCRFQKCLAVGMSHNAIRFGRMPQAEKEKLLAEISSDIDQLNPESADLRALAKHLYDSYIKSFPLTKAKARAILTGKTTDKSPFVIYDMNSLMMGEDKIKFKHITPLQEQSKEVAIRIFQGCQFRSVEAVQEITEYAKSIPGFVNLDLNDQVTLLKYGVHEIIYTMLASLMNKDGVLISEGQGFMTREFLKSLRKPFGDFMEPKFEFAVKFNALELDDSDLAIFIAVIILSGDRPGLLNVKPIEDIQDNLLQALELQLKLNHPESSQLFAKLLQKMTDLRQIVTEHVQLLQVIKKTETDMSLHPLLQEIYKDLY
# UniProt Q14994, sequence (Q14994 whole entry, looked up): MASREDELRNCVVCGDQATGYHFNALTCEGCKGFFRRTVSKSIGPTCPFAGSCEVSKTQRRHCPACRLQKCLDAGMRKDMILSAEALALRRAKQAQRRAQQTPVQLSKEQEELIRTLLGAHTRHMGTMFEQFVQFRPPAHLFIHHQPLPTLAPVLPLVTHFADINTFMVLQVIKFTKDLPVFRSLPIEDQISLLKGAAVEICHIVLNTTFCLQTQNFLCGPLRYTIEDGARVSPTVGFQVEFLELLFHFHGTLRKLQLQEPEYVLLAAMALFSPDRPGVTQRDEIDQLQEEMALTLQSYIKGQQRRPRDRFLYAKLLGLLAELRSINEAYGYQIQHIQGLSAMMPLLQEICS
# UniProt P16473, sequence (P16473 whole entry, looked up): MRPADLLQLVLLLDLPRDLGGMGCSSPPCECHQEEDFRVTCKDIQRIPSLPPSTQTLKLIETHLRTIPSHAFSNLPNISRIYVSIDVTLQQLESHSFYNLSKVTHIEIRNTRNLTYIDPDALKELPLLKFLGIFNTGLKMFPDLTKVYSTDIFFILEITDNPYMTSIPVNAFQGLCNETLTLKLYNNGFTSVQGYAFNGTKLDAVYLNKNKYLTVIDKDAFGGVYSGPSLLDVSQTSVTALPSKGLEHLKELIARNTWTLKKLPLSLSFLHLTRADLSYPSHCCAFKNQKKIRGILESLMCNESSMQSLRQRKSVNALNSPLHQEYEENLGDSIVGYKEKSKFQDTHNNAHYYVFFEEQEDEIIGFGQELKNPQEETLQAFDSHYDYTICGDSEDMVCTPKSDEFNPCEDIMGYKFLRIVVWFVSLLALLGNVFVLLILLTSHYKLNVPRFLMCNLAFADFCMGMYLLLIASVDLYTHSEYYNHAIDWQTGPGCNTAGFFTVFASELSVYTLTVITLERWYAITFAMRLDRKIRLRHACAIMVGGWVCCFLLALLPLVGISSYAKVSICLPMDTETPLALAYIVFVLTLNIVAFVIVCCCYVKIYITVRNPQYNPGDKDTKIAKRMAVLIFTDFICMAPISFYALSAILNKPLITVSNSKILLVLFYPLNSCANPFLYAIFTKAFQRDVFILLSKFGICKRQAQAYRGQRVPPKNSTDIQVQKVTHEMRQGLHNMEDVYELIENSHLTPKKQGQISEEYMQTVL
# UniProt P08659, sequence (P08659 whole entry, looked up): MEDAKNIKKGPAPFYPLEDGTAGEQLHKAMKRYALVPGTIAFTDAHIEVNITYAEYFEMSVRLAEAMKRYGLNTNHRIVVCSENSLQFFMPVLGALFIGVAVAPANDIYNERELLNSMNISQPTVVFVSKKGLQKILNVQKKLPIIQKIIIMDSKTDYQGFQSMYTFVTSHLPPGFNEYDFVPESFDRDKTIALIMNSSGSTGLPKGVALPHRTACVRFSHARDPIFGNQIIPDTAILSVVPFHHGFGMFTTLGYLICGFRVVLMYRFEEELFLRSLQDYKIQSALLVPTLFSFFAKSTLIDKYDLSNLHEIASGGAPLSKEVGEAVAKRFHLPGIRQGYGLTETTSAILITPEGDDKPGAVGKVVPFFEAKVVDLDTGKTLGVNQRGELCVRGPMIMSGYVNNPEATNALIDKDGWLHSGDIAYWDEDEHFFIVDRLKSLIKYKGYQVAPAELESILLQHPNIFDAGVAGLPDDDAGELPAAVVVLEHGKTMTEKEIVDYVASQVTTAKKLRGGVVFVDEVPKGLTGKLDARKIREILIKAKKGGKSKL
compound,measurement,setting,value
Cc1cccc(C)c1N,Potency,[1],"inconclusive [activator, single point]"
same,Potency,[2],inactive
same,Potency,[3],"inconclusive [rising, partial curve]"
CCCC(C)(COC(N)=O)COC(N)=O,Potency,[4],inactive
same,Potency,[5],inactive
ClSC(Cl)(Cl)Cl,Potency,[6],inactive
same,"viability change, negative = cytotoxic",[2],inconclusive: 32.1%
same,Potency,[7],"inconclusive [inhibitor, partial curve]"
ClCC(Cl)CCl,Potency,[8],"inconclusive [rising, full curve, poor fit]"
same,"activity change, negative = cytotoxicity",[6],inconclusive: -31.8% [cytotoxic]
same,Potency,[9],inactive
same,Potency,[10],inactive
CN1C(=S)CN=C(c2ccccc2)c2cc(Cl)ccc21,Potency,[11],active: 13.3 µM
same,activation,[1],inconclusive: 3.48%
same,Potency,[9],"inconclusive [activator, partial curve, poor fit]"
same,Potency,[12],"inconclusive [activator, single point]"
N#Cc1ccccc1N,Potency,[13],"inconclusive [falling, full curve, poor fit]"
CC(C)(C)NCC(O)c1cc(Cl)c(N)c(C(F)(F)F)c1 (stereo not drawn),Potency,[14],"inconclusive [cytotoxic, partial curve]"
same,Potency,[4],active: 7.5 µM
same,Potency,[15],"inconclusive [cytotoxic, partial curve]"
same,Potency,[3],"inconclusive [cytotoxic, partial curve]"
O=P(OCCCl)(OCCCl)OCCCl,Potency,[16],"inconclusive [cytotoxic, single point] and inactive"
same,Potency,[6],"inconclusive [cytotoxic, single point]"
same,Potency,[13],active: 4.81 µM
CNC(=O)O/N=C/C(C)(C)S(C)=O (stereo not drawn),Potency,[12],inactive
same,Potency,[4],"inconclusive [cytotoxic, single point]"
same,Potency,[17],"inconclusive [cytotoxic, single point]"
same,Potency,[15],"inconclusive [cytotoxic, full curve]"
C=CC(=O)OCCCCCC(C)C,Potency,[2],"inconclusive [rising, partial curve, poor fit]"
same,Potency,[15],inactive
CCOP(=S)(OCC)SCS(=O)(=O)C(C)(C)C,Potency,[9],"inconclusive [activator, partial curve, poor fit]"
same,Potency,[10],inactive
same,Potency,[4],"inconclusive [cytotoxic, single point]"
same,Potency,[17],"inconclusive [cytotoxic, single point]"
same,Potency,[3],inactive
O=c1oc2ccccc2c(O)c1C1CCCc2ccccc21 (stereo not drawn),Potency,[1],"inconclusive [activator, full curve]"
same,Potency,[7],"inconclusive [inhibitor, partial curve, poor fit]"
same,Potency,[13],active: 54.5 µM
same,Potency,[5],inactive
CC(C)c1ccc(NC(=O)N(C)C)cc1,Potency,[16],"inconclusive [cytotoxic, partial curve, poor fit]"
same,Potency,[11],"inconclusive [rising, partial curve]"
same,Potency,[9],active: 48.5 µM
same,Potency,[10],inactive
O=C(O)CBr,Potency,[1],inactive
same,Potency,[6],inactive
Oc1ccc2c3c1O[C@H]1[C@@H](O)C=C[C@H]4[C@@H](C2)NCC[C@@]341,Potency,[8],inactive
same,Potency,[6],"inconclusive [cytotoxic, single point]"
same,Potency,[13],"inconclusive [falling, full curve]"
same,Potency,[17],"inconclusive [cytotoxic, partial curve]"
same,Potency,[18],"inconclusive [falling, single point]"
CCC[CH2][Sn]([Cl])([Cl])[Cl],Potency,[14],"inconclusive [rising, partial curve, poor fit]"
same,Potency,[13],"inconclusive [falling, partial curve, poor fit]"
CC[C@]1(O)CC[C@H]2[C@@H]3CCC4=CCCC[C@@H]4[C@H]3CC[C@@]21C,Potency,[14],"inconclusive [cytotoxic, partial curve, poor fit]"
same,Potency,[6],"inconclusive [cytotoxic, partial curve, poor fit]"
same,Potency,[19],inactive
same,Potency,[5],inactive
CC(=O)NNc1ccccc1,Potency,[6],"inconclusive [cytotoxic, partial curve, poor fit]"
same,Potency,[2],"inconclusive [cytotoxic, full curve]"
same,Potency,[5],"inconclusive [cytotoxic, full curve]"
same,Potency,[18],"inconclusive [falling, partial curve]"
CSSC,Potency,[8],"inconclusive [rising, single point]"
same,Potency,[10],active: 7.86 µM
CCOP(=O)(Sc1ccccc1)Sc1ccccc1,"activity change, negative = inhibition",[11],inconclusive: 0.0644%
same,Potency,[2],"inconclusive [rising, full curve]"
same,Potency,[9],active: 21.7 µM
same,Potency,[19],inactive
same,Potency,[17],inactive
same,Potency,[15],"inconclusive [cytotoxic, partial curve, poor fit]"
